# Source: PMC5892938
# The list shows a part of the results. At the low end of the ranking, values are background and their order means little.
# Target: GST-SBP-SLBP (stem-loop binding protein) (UniProt Q14493)
# Test: targeted RNA Bind-n-Seq;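 note: DESeq read counts versus GST-SBP nonspecific binding control pulldown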
# Details: RBNS binding buffer: 25 mM Tris pH 7.5, 150 mM KCl, 3 mM MgCl2, 0.1% Tween, 0.5 mg/mL BSA, 1 mM DTT; 27 nM protein, 750 pM RNA pool; temperature not stated; high values mean tight binding
row,Sequence,binding signal (log2 fold change)
1,GGUCACGUCUCAAUCAACUCUUAAGAGGGGGGGAAAACCCCUUUACCCUCACAUUCAACAGCUCGCAGUCAAG,-0.484
2,GGUCACGUCUCAAUCAACUCUUCCCCCAGGGAAACCCCUGGUUAACUCAACAGCUCGCAGUCAAG,0.0949
3,GGUCACGUCUCAAUCAACUCAAUCCCAGGAGUUUACUCCUGCUAAUUCAACAGCUCGCAGUCAAG,0.125
4,GGUCACGUCUCAAUCAACUCUUCUCCCAGGGAAAACCCUGGUUUUUUCAACAGCUCGCAGUCAAG,-0.281
5,GGUCACGUCUCAAUCAACUCUAGUCCCAGGGAAAACCCUGGCAAUCUCAACAGCUCGCAGUCAAG,0.00929
6,GGUCACGUCUCAAUCAACUCCCCUGAGGGGGGGAAAACCCCUUUACCCUCUAAAUCAACAGCUCGCAGUCAAG,-0.157
7,GGUCACGUCUCAAUCAACUCAUAAGAGGGGGGGAAAACCCCUUUACCCUCCUAAUCAACAGCUCGCAGUCAAG,0.12
8,GGUCACGUCUCAAUCAACUCUUUCUCCAGGGAAAGCCCUGGUAAUUUCAACAGCUCGCAGUCAAG,0.0225
9,GGUCACGUCUCAAUCAACUCAAUAGAGGGGGGGAAAACCCCUUUACCCUCCAAUUCAACAGCUCGCAGUCAAG,0.12
10,GGUCACGUCUCAAUCAACUCAUUCCCAGGAGUUUACUCCUGCUAUCUCAACAGCUCGCAGUCAAG,-0.0401
11,GGUCACGUCUCAAUCAACUCAUUAGAGGGGGGGAAAACCCCUUUACCCUCAUUCUCAACAGCUCGCAGUCAAG,0.259
12,GGUCACGUCUCAAUCAACUCUAUCUCCAGGGAAAGCCCUGGCUAACUCAACAGCUCGCAGUCAAG,0.0627
13,GGUCACGUCUCAAUCAACUCAGUUUCCAGGGAAACCCCUGGCUUAUUCAACAGCUCGCAGUCAAG,-0.0969
14,GGUCACGUCUCAAUCAACUCAUCGCCAGGAGUUUUCUCCUGUAAAUUCAACAGCUCGCAGUCAAG,-0.000177
15,GGUCACGUCUCAAUCAACUCAUUCUCAGGAGUUUCCUCCUGCUUUGUCAACAGCUCGCAGUCAAG,0.0657
16,GGUCACGUCUCAAUCAACUCCUAAGAGGGGGGGAAAACCCCUUUGCCCUCGUAUUCAACAGCUCGCAGUCAAG,-0.0592
17,GGUCACGUCUCAAUCAACUCAUUCUCCAGGGAAACCCCUGGUUUAUUCAACAGCUCGCAGUCAAG,-0.11
18,GGUCACGUCUCAAUCAACUCCAAAGAGGGGGGGAAAACCCCUUUACCCUCACAAUCAACAGCUCGCAGUCAAG,-0.515
19,GGUCACGUCUCAAUCAACUCAGUUUCAGGAGUUUACUCCUGCUUUUUCAACAGCUCGCAGUCAAG,-0.226
20,GGUCACGUCUCAAUCAACUCAUUUUCCAGGGAAAACCCUGGCAAUUUCAACAGCUCGCAGUCAAG,-0.0381
